Data on 31 molecules can be found in publication PMC9911399, “Two distinct binding modes provide the RNA-binding protein RbFox with extraordinary sequence specificity”.

First the molecules themselves.
B1: CUGAGGC (DNA:RNA)
RNA: GGGAGACCGGAAUUCAGAUUGUCCCUGAGGCUUAAAUCCCGUCGUAGCCACCA
DNA 1: CAATCTGAATTCCGGTCTCCC
DNA 2: TGGTGGCTACGACGGGATT
B2: CGAAGUC (DNA:RNA)
RNA: B1 RNA with U26G, G27A, G30U
DNA 1: CAATCTGAATTCCGGTCTCCC
DNA 2: TGGTGGCTACGACGGGATT
B3: AUUUGGA (DNA:RNA)
RNA: B1 RNA with C25A, G27U, A28U, C31A
DNA 1: CAATCTGAATTCCGGTCTCCC
DNA 2: TGGTGGCTACGACGGGATT
B4: UAGUCAU (DNA:RNA)
RNA: B1 RNA with C25U, U26A, A28U, G29C, G30A, C31U
DNA 1: CAATCTGAATTCCGGTCTCCC
DNA 2: TGGTGGCTACGACGGGATT
B5: CAUUGAC (DNA:RNA)
RNA: B1 RNA with U26A, G27U, A28U, G30A
DNA 1: CAATCTGAATTCCGGTCTCCC
DNA 2: TGGTGGCTACGACGGGATT
B6: UGUCAUA (DNA:RNA)
RNA: GGGAGACCGGAAUUCAGAUUGUCCUGUCAUAUUAAAUCCCGUCGUAGCCACCA
DNA 1: CAATCTGAATTCCGGTCTCCC
DNA 2: TGGTGGCTACGACGGGATT
B7: ACACGGU (DNA:RNA)
RNA: B1 RNA with C25A, U26C, G27A, A28C, C31U
DNA 1: CAATCTGAATTCCGGTCTCCC
DNA 2: TGGTGGCTACGACGGGATT
B8: UGUGGUC (DNA:RNA)
RNA: B6 RNA with C28G, A29G, A31C
DNA 1: CAATCTGAATTCCGGTCTCCC
DNA 2: TGGTGGCTACGACGGGATT
B9: UAUUGGU (DNA:RNA)
RNA: B1 RNA with C25U, U26A, G27U, A28U, C31U
DNA 1: CAATCTGAATTCCGGTCTCCC
DNA 2: TGGTGGCTACGACGGGATT
B10: GAGACCC (DNA:RNA)
RNA: B1 RNA with C25G, U26A, G29C, G30C
DNA 1: CAATCTGAATTCCGGTCTCCC
DNA 2: TGGTGGCTACGACGGGATT
B11: AAAAAUG (DNA:RNA)
RNA: B6 RNA with U25A, G26A, U27A, C28A, A31G
DNA 1: CAATCTGAATTCCGGTCTCCC
DNA 2: TGGTGGCTACGACGGGATT
B12: GGCUGAA (DNA:RNA)
RNA: B6 RNA with U25G, U27C, C28U, A29G, U30A
DNA 1: CAATCTGAATTCCGGTCTCCC
DNA 2: TGGTGGCTACGACGGGATT
B13: ACAUCUC (DNA:RNA)
RNA: B1 RNA with C25A, U26C, G27A, A28U, G29C, G30U
DNA 1: CAATCTGAATTCCGGTCTCCC
DNA 2: TGGTGGCTACGACGGGATT
B14: CAAUACC (DNA:RNA)
RNA: B1 RNA with U26A, G27A, A28U, G29A, G30C
DNA 1: CAATCTGAATTCCGGTCTCCC
DNA 2: TGGTGGCTACGACGGGATT
B15: UGAGUGU (DNA:RNA)
RNA: B6 RNA with U27A, C28G, A29U, U30G, A31U
DNA 1: CAATCTGAATTCCGGTCTCCC
DNA 2: TGGTGGCTACGACGGGATT
B16: UUUGCCC (DNA:RNA)
RNA: B1 RNA with C25U, G27U, A28G, G29C, G30C
DNA 1: CAATCTGAATTCCGGTCTCCC
DNA 2: TGGTGGCTACGACGGGATT
B17: AAGCCAA (DNA:RNA)
RNA: B6 RNA with U25A, G26A, U27G, A29C, U30A
DNA 1: CAATCTGAATTCCGGTCTCCC
DNA 2: TGGTGGCTACGACGGGATT
B18: CCUAGUA (DNA:RNA)
RNA: B1 RNA with U26C, G27U, G30U, C31A
DNA 1: CAATCTGAATTCCGGTCTCCC
DNA 2: TGGTGGCTACGACGGGATT
B19: CCUCAAU (DNA:RNA)
RNA: B6 RNA with U25C, G26C, U30A, A31U
DNA 1: CAATCTGAATTCCGGTCTCCC
DNA 2: TGGTGGCTACGACGGGATT
B20: GGAACAU (DNA:RNA)
RNA: B1 RNA with C25G, U26G, G27A, G29C, G30A, C31U
DNA 1: CAATCTGAATTCCGGTCTCCC
DNA 2: TGGTGGCTACGACGGGATT
B21: GGGCAAC (DNA:RNA)
RNA: B6 RNA with U25G, U27G, U30A, A31C
DNA 1: CAATCTGAATTCCGGTCTCCC
DNA 2: TGGTGGCTACGACGGGATT
B22: AGGAUGC (DNA:RNA)
RNA: B1 RNA with C25A, U26G, G29U
DNA 1: CAATCTGAATTCCGGTCTCCC
DNA 2: TGGTGGCTACGACGGGATT
B23: UUCACGU (DNA:RNA)
RNA: B1 RNA with C25U, G27C, G29C, C31U
DNA 1: CAATCTGAATTCCGGTCTCCC
DNA 2: TGGTGGCTACGACGGGATT
B24: CAGAGGU (DNA:RNA)
RNA: B1 RNA with U26A, C31U
DNA 1: CAATCTGAATTCCGGTCTCCC
DNA 2: TGGTGGCTACGACGGGATT
B25: CGUCGGC (DNA:RNA)
RNA: B1 RNA with U26G, G27U, A28C
DNA 1: CAATCTGAATTCCGGTCTCCC
DNA 2: TGGTGGCTACGACGGGATT
B26: AUCAUUA (DNA:RNA)
RNA: B1 RNA with C25A, G27C, G29U, G30U, C31A
DNA 1: CAATCTGAATTCCGGTCTCCC
DNA 2: TGGTGGCTACGACGGGATT
B27: UAAAAUG (DNA:RNA)
RNA: B6 RNA with G26A, U27A, C28A, A31G
DNA 1: CAATCTGAATTCCGGTCTCCC
DNA 2: TGGTGGCTACGACGGGATT
B28: CGCAAAC (DNA:RNA)
RNA: B1 RNA with U26G, G27C, G29A, G30A
DNA 1: CAATCTGAATTCCGGTCTCCC
DNA 2: TGGTGGCTACGACGGGATT
B29: GUCUUAG (DNA:RNA)
RNA: B1 RNA with C25G, G27C, A28U, G29U, G30A, C31G
DNA 1: CAATCTGAATTCCGGTCTCCC
DNA 2: TGGTGGCTACGACGGGATT
B30: UCCGAAU (DNA:RNA)
RNA: B6 RNA with G26C, U27C, C28G, U30A, A31U
DNA 1: CAATCTGAATTCCGGTCTCCC
DNA 2: TGGTGGCTACGACGGGATT
B31: CGUGUGU (DNA:RNA)
RNA: B1 RNA with U26G, G27U, A28G, G29U, C31U
DNA 1: CAATCTGAATTCCGGTCTCCC
DNA 2: TGGTGGCTACGACGGGATT

Changes are numbered by the printed parent chain; changes in the protein carry UniProt numbers. This is one part of the list.

This assay has as its target T1, RBFOX1 RRM (Homo sapiens, UniProt Q9NWB1 109-208).
T1 sequence: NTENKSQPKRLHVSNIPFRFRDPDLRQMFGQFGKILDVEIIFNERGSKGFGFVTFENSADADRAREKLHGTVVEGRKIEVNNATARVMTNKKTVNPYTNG
The assay can be described thus: EMSA; HiTS-Eq, 1 nM pool, 10 min; buffer printed only for the single-RNA assays: 10 mM Tris pH 7.5, 150 mM NaCl, 3.4 mM EDTA, 0.001% NP-40, 30 C. The settings on record: tags: His6 N-terminal (pET28a); label: 5' 32P. A digest of the protocol: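 These values rest on relative association constants, computed from read-count changes of each RNA species versus the control reaction and normalised to the cognate motif. Reads came from free RNA recovered by 8% native PAGE after purified RbFox RRM (wild type or mutant) at increasing concentrations was equilibrated for 10 min in 50 µL with 1 nM of a 5′-radiolabelled pool with 7 randomized nucleotides and DNA-annealed flanks.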
On the technique in general: In EMSA bound probe runs differently from free probe, usually more slowly.
For the molecule B1, the binding signal is 0.0163 KA relative to UGCAUGU.
As to B2, the binding signal is 0.0108 KA relative to UGCAUGU.
Turning to B3, the binding signal is 0.00248 KA relative to UGCAUGU.
Turning to B4, the binding signal was 0.00945 KA relative to UGCAUGU.
To B5 belongs 0.00465 KA relative to UGCAUGU.
Regarding B6, the binding signal was 0.00564 KA relative to UGCAUGU.
Regarding B7, the binding signal was 0.00589 KA relative to UGCAUGU.
With B8, the binding signal was 0.025 KA relative to UGCAUGU.
On to B9, for which the binding signal is 0.0172 KA relative to UGCAUGU.
Take B10: the binding signal is 0.00378 KA relative to UGCAUGU.
Turning to B11, the binding signal was 0.000279 KA relative to UGCAUGU.
As for B12, the binding signal was 0.0275 KA relative to UGCAUGU.
In the case of B13, the binding signal is 0.00219 KA relative to UGCAUGU.
In the case of B14, the binding signal was 0.0011 KA relative to UGCAUGU.
For the molecule B15, the binding signal was 0.0253 KA relative to UGCAUGU.
As for B16, the binding signal was 0.0146 KA relative to UGCAUGU.
To B17 belongs 0.000692 KA relative to UGCAUGU; to B18, 0.00375 KA relative to UGCAUGU.
B19: the binding signal was 0.00306 KA relative to UGCAUGU.
To B20 belongs 0.00888 KA relative to UGCAUGU; to B21, 0.014 KA relative to UGCAUGU.
On to B22, for which the binding signal was 0.0197 KA relative to UGCAUGU.
Take B23: the binding signal was 0.00918 KA relative to UGCAUGU.
For the molecule B24, the binding signal is 0.012 KA relative to UGCAUGU.
Consider B25, for which the binding signal was 0.0149 KA relative to UGCAUGU.
Take B26: the binding signal was 0.000424 KA relative to UGCAUGU.
To B27 belongs 0.00975 KA relative to UGCAUGU; to B28, 0.00289 KA relative to UGCAUGU; to B29, 0.0121 KA relative to UGCAUGU.
In the case of B30, the binding signal was 0.00694 KA relative to UGCAUGU.
B31: the binding signal is 0.0123 KA relative to UGCAUGU.
